The antibiotic and cytotoxicity screens of Wong et al. (2023)
This is one part of the list.

What was measured:
HSkMC = human skeletal muscle cells; assay: cytotoxicity call (relative viability < 0.9); details: 10 µM
HepG2 = assay: cytotoxicity call (relative viability < 0.9); details: 10 µM
S. aureus RN4220 = assay: growth inhibition call (relative growth <= 0.2); details: 50 µM

## COc1ccc2c3c([nH]c2c1)[C@H](CO)N(C[C@]13CCN(CC1)CC1CCCCC1)C(=O)Nc1cccc(c1)F
HSkMC
  cytotoxicity call: active
HepG2
  cytotoxicity call: active
S. aureus RN4220
  growth inhibition call: inactive

## C[C@@H]1CCCCO[C@H](CN(C)Cc2ccccc2)[C@@H](C)CN([C@@H](C)CO)C(=O)c2cc(NC(=O)Cc3ccccc3)ccc2O1
HSkMC
  cytotoxicity call: inactive
HepG2
  cytotoxicity call: active
S. aureus RN4220
  growth inhibition call: inactive

## COCC#Cc1ccc2c(c1)O[C@H](CN(C)S(=O)(=O)c1cccc(F)c1)[C@H](C)CN([C@@H](C)CO)S2(=O)=O
HSkMC
  cytotoxicity call: inactive
HepG2
  cytotoxicity call: inactive
S. aureus RN4220
  growth inhibition call: inactive

## C[C@H](CO)N1C[C@H](C)[C@H](CN(C)S(=O)(=O)c2ccc(F)cc2)OCCCC[C@H](C)Oc2ccc(NC(=O)C3CCCCC3)cc2C1=O
HSkMC
  cytotoxicity call: inactive
HepG2
  cytotoxicity call: inactive
S. aureus RN4220
  growth inhibition call: inactive

## C[C@@H]1CN([C@H](C)CO)C(=O)c2cc(NS(=O)(=O)c3ccc(F)cc3)ccc2O[C@@H](C)CCCCO[C@H]1CN(C)CC1CCCCC1
HSkMC
  cytotoxicity call: inactive
HepG2
  cytotoxicity call: active
S. aureus RN4220
  growth inhibition call: inactive

## C[C@@H]1CN([C@H](C)CO)C(=O)c2cc(NC(=O)CCN3CCOCC3)ccc2O[C@H]1CN(C)C(=O)NC1CCCCC1
HSkMC
  cytotoxicity call: inactive
HepG2
  cytotoxicity call: inactive
S. aureus RN4220
  growth inhibition call: inactive

## C[C@@H]1CN([C@@H](C)CO)C(=O)c2cc(NS(=O)(=O)c3ccc(F)cc3)ccc2O[C@@H](C)CCCCO[C@H]1CN(C)C(=O)c1ccccc1
HSkMC
  cytotoxicity call: inactive
HepG2
  cytotoxicity call: inactive
S. aureus RN4220
  growth inhibition call: inactive

## COc1ccc(S(=O)(=O)N(C)C[C@H]2Oc3ccc(N(C)C)cc3CC(=O)N([C@@H](C)CO)C[C@@H]2C)cc1
HSkMC
  cytotoxicity call: inactive
HepG2
  cytotoxicity call: inactive
S. aureus RN4220
  growth inhibition call: inactive

## Cc1noc(C)c1NC(=O)Nc1ccc2c(c1)CC(=O)N([C@@H](C)CO)C[C@@H](C)[C@@H](CN(C)Cc1ccc(C(=O)Nc3ccccc3N)cc1)O2
HSkMC
  cytotoxicity call: inactive
HepG2
  cytotoxicity call: inactive
S. aureus RN4220
  growth inhibition call: inactive

## CC(C)(N)c1nc(-c2ccc(OC(F)(F)F)cc2)c[nH]1
HSkMC
  cytotoxicity call: inactive
HepG2
  cytotoxicity call: inactive
S. aureus RN4220
  growth inhibition call: inactive

## Cc1ccc(S(=O)(=O)Nc2ccc3c(c2)C(=O)N([C@H](C)CO)C[C@H](C)[C@H](CN(C)Cc2ccncc2)OCCCC[C@@H](C)O3)cc1
HSkMC
  cytotoxicity call: inactive
HepG2
  cytotoxicity call: inactive
S. aureus RN4220
  growth inhibition call: inactive

## C[C@@H]1CCCCO[C@@H](CN(C)Cc2ccc(C(F)(F)F)cc2)[C@H](C)CN([C@H](C)CO)C(=O)c2cc(NS(=O)(=O)c3ccccc3)ccc2O1
HSkMC
  cytotoxicity call: inactive
HepG2
  cytotoxicity call: inactive
S. aureus RN4220
  growth inhibition call: inactive

## Cc1ccc(-c2cnc3c(c2)C(=O)N([C@H](C)CO)C[C@H](C)[C@H](CN(C)C(=O)Cc2cccnc2)O3)cc1
HSkMC
  cytotoxicity call: inactive
HepG2
  cytotoxicity call: inactive
S. aureus RN4220
  growth inhibition call: inactive

## C[C@@H]1CN([C@@H](C)CO)C(=O)c2cccc(NC(=O)CCCCCC(=O)Nc3ccccc3N)c2O[C@H]1CN(C)S(C)(=O)=O
HSkMC
  cytotoxicity call: inactive
HepG2
  cytotoxicity call: inactive
S. aureus RN4220
  growth inhibition call: inactive

## Cc1csc2ccc(F)cc12
HSkMC
  cytotoxicity call: inactive
HepG2
  cytotoxicity call: inactive
S. aureus RN4220
  growth inhibition call: inactive

## COc1ccccc1C#Cc1ccc2c(c1)O[C@@H](CN(C)Cc1ccncc1)[C@@H](C)CN([C@H](C)CO)S2(=O)=O
HSkMC
  cytotoxicity call: inactive
HepG2
  cytotoxicity call: inactive
S. aureus RN4220
  growth inhibition call: inactive

## C[C@@H]1CN([C@H](C)CO)C(=O)c2cc(NC(=O)Nc3ccc4c(c3)OCO4)ccc2O[C@@H]1CN(C)Cc1ccc(Oc2ccccc2)cc1
HSkMC
  cytotoxicity call: active
HepG2
  cytotoxicity call: active
S. aureus RN4220
  growth inhibition call: inactive

## CO[C@@H]1CN(C)C(=O)c2cc(NC(=O)Nc3cccc(F)c3)ccc2OC[C@@H](C)N(C(=O)Nc2c(C)noc2C)C[C@H]1C
HSkMC
  cytotoxicity call: inactive
HepG2
  cytotoxicity call: inactive
S. aureus RN4220
  growth inhibition call: inactive

## Cc1noc(C)c1S(=O)(=O)N(C)C[C@@H]1Oc2ccc(NS(=O)(=O)c3ccc(F)cc3)cc2CC(=O)N([C@H](C)CO)C[C@H]1C
HSkMC
  cytotoxicity call: inactive
HepG2
  cytotoxicity call: inactive
S. aureus RN4220
  growth inhibition call: inactive

## C[C@H](CO)N1C[C@H](C)[C@@H](CN(C)S(=O)(=O)c2cn(C)cn2)Oc2ccc(NC(=O)Nc3ccccc3)cc2C1=O
HSkMC
  cytotoxicity call: inactive
HepG2
  cytotoxicity call: inactive
S. aureus RN4220
  growth inhibition call: inactive

## C[C@@H]1CN([C@@H](C)CO)S(=O)(=O)c2ccc(Br)cc2O[C@H]1CN(C)C(=O)c1ccc2c(c1)OCO2
HSkMC
  cytotoxicity call: inactive
HepG2
  cytotoxicity call: inactive
S. aureus RN4220
  growth inhibition call: inactive

## CS(=O)(=O)NCCc1ccccc1
HSkMC
  cytotoxicity call: inactive
HepG2
  cytotoxicity call: inactive
S. aureus RN4220
  growth inhibition call: inactive

## O=C(C[C@H]1CC[C@H](NC(=O)Nc2ccc3c(c2)OCO3)[C@@H](CO)O1)NCCCN1CCOCC1
HSkMC
  cytotoxicity call: inactive
HepG2
  cytotoxicity call: inactive
S. aureus RN4220
  growth inhibition call: inactive

## O=C(C[C@H]1C[C@H]2c3cc(NS(=O)(=O)c4ccc(F)cc4)ccc3O[C@H]2[C@@H](CO)O1)NC1CCCCC1
HSkMC
  cytotoxicity call: inactive
HepG2
  cytotoxicity call: inactive
S. aureus RN4220
  growth inhibition call: inactive

## Cc1noc(C)c1S(=O)(=O)N(C)C[C@H]1Oc2ccc(NS(=O)(=O)c3ccc(Cl)cc3)cc2C(=O)N([C@H](C)CO)C[C@H]1C
HSkMC
  cytotoxicity call: inactive
HepG2
  cytotoxicity call: inactive
S. aureus RN4220
  growth inhibition call: inactive

## C[C@@H]1CN([C@@H](C)CO)C(=O)c2cccc(NC(=O)c3cnccn3)c2O[C@H]1CN(C)C(=O)NC1CCCCC1
HSkMC
  cytotoxicity call: inactive
HepG2
  cytotoxicity call: inactive
S. aureus RN4220
  growth inhibition call: inactive

## Cc1noc(C)c1S(=O)(=O)Nc1ccc2c(c1)C(=O)N([C@H](C)CO)C[C@H](C)[C@H](CN(C)CC1CCCCC1)OCCCC[C@H](C)O2
HSkMC
  cytotoxicity call: inactive
HepG2
  cytotoxicity call: inactive
S. aureus RN4220
  growth inhibition call: inactive

## COc1ccc(C(=O)NCC(=O)O)cc1
HSkMC
  cytotoxicity call: inactive
HepG2
  cytotoxicity call: inactive
S. aureus RN4220
  growth inhibition call: inactive
